# In the supplement of paper PMC10369915:
# The other results are listed elsewhere or left out. Cut-off read from the data, not from the text of the source: active = 3.2 or more and inactive = the rest. Only a few entries rise above the background.
# Legend:
# Assay in all cases: enrichment score (SH2-bound / input frequency) (ratio); bacterial display of known human phosphotyrosine sites (pTyr-Var adds point mutants) read by sequencing; higher = stronger binding; tyrosines were phosphorylated by kinases first
# Details in all cases: peptide library: pTyr-Var
# [1] = target: SHP2 C-SH2 domain E139D
# [2] = target: SHP2 C-SH2 domain wild-type
# [3] = target: SHP2 N-SH2 domain L43F
# [4] = target: SHP2 N-SH2 domain T42A
# [5] = target: SHP2 N-SH2 domain T52S
# [6] = target: SHP2 N-SH2 domain wild-type
# 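Note: displayed peptides selected on beads carrying the immobilized SH2 domain, with library peptides lacking any tyrosine serving as negative controls.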
Binder,enrichment score [1],enrichment score [2],enrichment score [3],enrichment score [4],enrichment score [5],enrichment score [6]
FEAMEYLESKQ [BTK_Y511_C506Y_YF],inactive: 0.81,inactive: 0.958,inactive: 0.829,inactive: 0.622,inactive: 0.876,inactive: 1.03
PEFINYHQHNS [BTK_Y361_L358F],inactive: 1.27,inactive: 0.806,inactive: 1.13,inactive: 0.658,inactive: 0.801,inactive: 0.807
CEAMEYPESKQ [BTK_Y511_L512P],inactive: 0.839,inactive: 0.833,inactive: 0.885,inactive: 0.775,inactive: 0.672,inactive: 0.975
EPSVDCCVVKI [CAD_Y735_Y735C],inactive: 0.662,inactive: 0.706,inactive: 0.715,inactive: 0.597,inactive: 0.778,inactive: 0.624
HKLSYNEYDFE [BTK_Y40_Y40N],inactive: 0.858,inactive: 0.667,inactive: 0.527,inactive: 0.601,inactive: 0.767,inactive: 0.565
MQMEEYRGWVE [BTNL2_Y91],inactive: 0.846,inactive: 0.685,inactive: 0.889,inactive: 0.876,inactive: 0.73,inactive: 0.776
FNSLPYQVPTS [CALCOCO2_Y358],inactive: 0.963,inactive: 0.679,inactive: 0.676,inactive: 0.801,inactive: 0.606,inactive: 0.688
CEAMEYQESKQ [BTK_Y511_L512Q],inactive: 0.695,inactive: 0.892,inactive: 0.904,inactive: 0.622,inactive: 0.57,inactive: 1.32
PRPAGYPSTVS [CACNA1C_Y1832],inactive: 0.697,inactive: 0.583,inactive: 0.671,inactive: 0.608,inactive: 0.655,inactive: 0.785
GDKENYGLPQP [BUB1_Y538_N534D],inactive: 0.489,inactive: 0.49,inactive: 0.468,inactive: 0.415,inactive: 0.437,inactive: 0.532
GNHVSYYQSDG [CACNA1C_Y1757],inactive: 0.572,inactive: 0.525,inactive: 0.52,inactive: 0.593,inactive: 0.672,inactive: 0.562
VLDCHYPEDEV [C1QBP_Y188],inactive: 0.745,inactive: 0.641,inactive: 0.692,inactive: 0.705,inactive: 1.06,inactive: 0.761
PGVDRYSLGTS [C5orf42_Y1451],inactive: 0.609,inactive: 0.604,inactive: 0.457,inactive: 0.489,inactive: 0.641,inactive: 0.453
VHFLVYHHHHH [CACNA1H_Y519_H516Y_YF],active: 3.55,active: 3.21,inactive: 3.03,inactive: 2.83,inactive: 2.96,active: 3.53
HKLSSYEYDFE [BTK_Y40_Y39S],inactive: 0.54,inactive: 0.528,inactive: 0.39,inactive: 0.378,inactive: 0.5,inactive: 0.707
QGLRLYRSHLA [BTK_Y617_P619S],inactive: 1.4,inactive: 1.15,inactive: 1.14,inactive: 1.41,inactive: 1.04,inactive: 1.04
VLDSHYPEDEV [C1QBP_Y188_C186S],inactive: 0.609,inactive: 0.636,inactive: 0.604,inactive: 0.646,inactive: 0.599,inactive: 0.635
YEAMEYLESKQ [BTK_Y511_C506Y],inactive: 0.781,inactive: 0.884,inactive: 0.701,inactive: 1.07,inactive: 0.639,inactive: 0.737
PELINYHQPNS [BTK_Y361_H364P],inactive: 0.554,inactive: 0.565,inactive: 0.769,inactive: 0.654,inactive: 0.519,inactive: 0.858
